Measured values taken from the supplement of paper PMC10986608.
The other results are listed elsewhere or left out. Most values come without repeats; read them as rough.

These molecules were tested on Candida albicans DPL-15 (assay: growth (OD600) after compound treatment (apparently relative to screen median) (relative growth (fraction; screen median 1.02)); DPL-15 is a caspofungin-resistant clinical isolate; higher = more fungal growth (less antifungal activity)). Details: 25 µM; RPMI 1640; 48 h; 30 °C.
`CCN1C(NCC(C)C)=NC(c2ccc(Cl)cc2)C(C(=O)OC)=C1C` (centres undefined) showed a growth of 0.897.
Work on `O=C1OC2(CCCCC2)CC2=C1[C@H]1O[C@](CCCCN3C(=O)c4ccccc4C3=O)(Cc3ccccc31)O2` yielded a growth of 0.98.
Molecule `COc1ccc([C@@H]2[C@@H](C(=O)NCC3CC3)[C@@H](C(=O)NCC3CC3)[C@@H]2c2ccc(OC)c(OC)c2)cc1OC` has a growth of 1.12.
With `Cc1cc(C)cc(-n2nc3c(c2-c2ccccc2)C(c2ccccc2)NC3=O)c1` (centres undefined) the growth was 0.922.
For `COc1ccc(N2C(=O)C3=C(C(c4ccccc4)=NCC(C)(C)N3)C2c2ccc(Br)cc2)cc1` (centres undefined), the growth was 0.915.
For `C[C@H]1C[C@H]2CC(=O)N[C@@H](Cc3c[nH]c4ccccc34)C(=O)N2[C@H]1c1ccccc1`, the growth was 0.973.
With `CC(C)c1c2c(nn1Cc1ccccc1)C(=O)NC2c1ccc(Br)cc1` (centres undefined) the growth was 1.19.
`COC(=O)c1cc(OC)c(Cl)c(O)c1OC` gave a growth of 1.04.
For `COC(=O)[C@@]12Oc3cccc(O)c3C(OC)=C1C(=O)CC[C@H]2O`, the growth was 1.05.
With `COc1cccc(C#C[C@@H]2C=C[C@H](OC(C)=O)[C@@H](COC(C)=O)O2)c1` the growth was 0.874.
`CCCC[C@H](C)OS(=O)(=O)NC(C)(C)C` was tested, and the growth was 1.11.
With `[N-]=[N+]=Nc1cc(O)cc(O)c1C(=O)N1Cc2cn[nH]c2C1` the growth was 1.07.
Work on `COC(=O)[C@]12C[C@@H](C)[C@@H]3[C@@H](C)[C@H](c4ccccc4[C@H]31)N2C(=O)C(F)(F)F` yielded a growth of 0.965.
In the case of `CC(C)Cc1n[nH]c2c1C(c1ccc(F)cc1)N(c1ccc(F)cc1F)C2=O` (centres undefined), the growth is reported as 0.933.
Work on `COC(=O)C1=C(C)N(Cc2ccc(Br)cc2)C(=S)NC1c1ccc(F)cc1` (centres undefined) yielded a growth of 0.982.
Molecule `CCCCCN(C(=O)OC(C)(C)C)S(=O)(=O)Nc1ccc(C(F)(F)F)cc1` has a growth of 1.23.
`CCNC(=O)OC[C@H]1O[C@H](C#Cc2ccc(C(C)(C)C)cc2)C=C[C@H]1O` gave a growth of 1.02.
Molecule `CC(=O)C1=C(C)NC(=O)NC1c1ccc(Br)cc1` (centres undefined) has a growth of 1.04.
In the case of `CCN(CC)C(=O)c1c(O)cc(O)cc1CC(=O)CC(C)(C)C`, the growth is reported as 0.968.
`CC1=NCCN(C)C2=C1C(c1cccc(C(F)(F)F)c1)N(c1ccccc1)C2=O` (centres undefined) gave a growth of 0.942.
In the case of `CC(C)Cc1c2c(nn1Cc1ccccc1)C(=O)NC2c1ccccc1` (centres undefined), the growth is reported as 1.15.
Work on `CCN1C(=S)NC(c2cccc(OC)c2)C(C(=O)OC)=C1C` (centres undefined) yielded a growth of 1.08.
`Cc1cc2c(nc1C)CCCN2C` gave a growth of 1.01.
`C[C@H]1C[C@H]2CC(=O)N(C)[C@@H](Cc3ccccc3)C(=O)N2[C@H]1c1cccc(Br)c1` was tested, and the growth was 1.1.
Molecule `COC(=O)C1=C(C(=O)OC)[C@@H]2N(C)c3ccccc3[C@@]23C[C@@H](CO)N(C(=O)C2CCC2)C3=N1` has a growth of 0.991.
Molecule `COC(=O)C/C=C/[C@H](C)[C@@H](NC(=O)[C@H](CC(=O)OCc1ccccc1)NC(=O)OC(C)(C)C)c1ccccc1` has a growth of 1.01.
Molecule `COC(=O)N[C@@H](c1ccc2ccccc2c1)C(C(C)=O)C(=O)OC` (some centres undefined) has a growth of 0.94.
Molecule `C=CCC1=C(OC)[C@@]2(CC=C)C[C@@H]3[C@@H](c4ccc(OC)cc4)[C@](O)(c4ccccc4)[C@]3(C1=O)C2=O` has a growth of 1.11.
`COC(=O)c1nnc(C(=O)OC)c2[nH]c(-c3ccccc3)nc12` was tested, and the growth was 1.06.
Molecule `Cc1cc(C)cc(-n2nc(C)c3c2C(=O)NC3c2ccccc2)c1` (centres undefined) has a growth of 0.968.
`COc1cc([C@H]2c3c(OC)c(O)c4oc5cc(Cl)ccc5c(=O)c4c3[C@@H]3C=C(C)CC(C)(C)[C@H]23)c2c(=O)c3ccc(Cl)cc3oc2c1O` gave a growth of 1.16.
Work on `COc1ccc2c(c1)[C@@H](NS(=O)(=O)c1ccc(Br)cc1)[C@H](C)[C@H]2c1ccccc1` yielded a growth of 1.04.
With `C=CCC[C@@H](O)COc1cc2c(cc1C1(c3cc4c(cc3OC[C@H](O)CCC=C)OCO4)C(=O)Nc3cccc(Br)c31)OCO2` the growth was 0.857.
In the case of `COc1cc2c(cc1OC)CN(CC1CCCN(CCc3ccccc3)C1)CC2` (centres undefined), the growth is reported as 1.13.
`COC(=O)C1=C(C)N(Cc2ccc(Cl)cc2)C(=S)NC1c1ccccc1Br` (centres undefined) showed a growth of 1.1.
`COC(=O)[C@H]1[C@H](C(=O)OC)[C@@H](c2ccc(OC)c(OC)c2)[C@@H]1c1ccc(OC)c(OC)c1` was tested, and the growth was 1.1.
For `C=CC[C@]12C[C@@]3(O[C@H](C(C)C)N=C3C[C@H](c3ccc(OC)cc3)[C@H]1C)N(Cc1ccco1)C2=O`, the growth was 0.998.
`COc1ccc([C@]23[C@@H](c4ccccc4)C[C@@H](O)[C@@]2(O)c2c(F)cccc2N3C)cc1` showed a growth of 0.883.
With `COC(=O)C1=C(C)N(Cc2ccc(C(F)(F)F)cc2)C(NCC2CCCCC2)=NC1c1ccccc1` (centres undefined) the growth was 0.792.
Molecule `CC(C)c1cc(N)n(C)n1` has a growth of 1.16.
In the case of `CCOC(=O)OC[C@H]1O[C@H](C#Cc2ccc(C(C)(C)C)cc2)C=C[C@@H]1OC(=O)OCC`, the growth is reported as 0.735.
Work on `C=CCCN1C(=O)[C@H]2[C@H]3c4ccccc4[C@]([C@@H](COC)OC)(c4ccccc43)[C@H]2C1=O` yielded a growth of 0.93.
For `COc1ccc(N2C(=O)C3=C(C(C)=NCC(C)(C)N3)C2c2ccc(C)cc2)cc1` (centres undefined), the growth was 1.04.
Molecule `C#Cc1cc(OC)cc(OC)c1-c1cc(OC)ccc1O` has a growth of 0.994.
Molecule `COc1ccc(N2C(=O)C3=C(C(C)=NCCN3)C2c2ccc(Br)cc2)cc1` (centres undefined) has a growth of 1.01.
Molecule `CO[C@@H]1[C@H](O)CC[C@]2(O)CN(CC3CC3)[C@](C)([C@H](O)CC=C(C)C)[C@@H]12` has a growth of 1.06.
In the case of `COC(=O)C/C=C/[C@H](C)[C@@H](NC(=O)[C@@H](NC(=O)OC(C)(C)C)C(C)C)c1ccccc1`, the growth is reported as 1.15.
With `COC(=O)c1cc2c(c3c4cc(F)ccc4n(S(=O)(=O)c4ccccc4)c13)C(=O)N(Cc1ccc(C)cc1)C2` the growth was 0.965.
For `CO[C@H](C(F)(F)F)[C@]12c3ccccc3[C@H](c3ccccc31)[C@@H]1C(=O)N(CCc3cc4ccccc4o3)C(=O)[C@@H]12`, the growth was 0.97.
